Over roughly 33,000 sequences, “E-score (-0.5 to 0.5)” has its median near -0.012; the highest 2% begin near 0.29. This is one part of the list.
What follows are sequences tested against T1, Ybr033w (UniProt P38073) (assay: PBM E-score (8-mer binding enrichment) (E-score (-0.5 to 0.5)); higher = stronger / more preferred TF binding; most listed sequences are background and not binding sites). Conditions: protein concentration: 200 nM; construct: GST-full length.
T1 sequence: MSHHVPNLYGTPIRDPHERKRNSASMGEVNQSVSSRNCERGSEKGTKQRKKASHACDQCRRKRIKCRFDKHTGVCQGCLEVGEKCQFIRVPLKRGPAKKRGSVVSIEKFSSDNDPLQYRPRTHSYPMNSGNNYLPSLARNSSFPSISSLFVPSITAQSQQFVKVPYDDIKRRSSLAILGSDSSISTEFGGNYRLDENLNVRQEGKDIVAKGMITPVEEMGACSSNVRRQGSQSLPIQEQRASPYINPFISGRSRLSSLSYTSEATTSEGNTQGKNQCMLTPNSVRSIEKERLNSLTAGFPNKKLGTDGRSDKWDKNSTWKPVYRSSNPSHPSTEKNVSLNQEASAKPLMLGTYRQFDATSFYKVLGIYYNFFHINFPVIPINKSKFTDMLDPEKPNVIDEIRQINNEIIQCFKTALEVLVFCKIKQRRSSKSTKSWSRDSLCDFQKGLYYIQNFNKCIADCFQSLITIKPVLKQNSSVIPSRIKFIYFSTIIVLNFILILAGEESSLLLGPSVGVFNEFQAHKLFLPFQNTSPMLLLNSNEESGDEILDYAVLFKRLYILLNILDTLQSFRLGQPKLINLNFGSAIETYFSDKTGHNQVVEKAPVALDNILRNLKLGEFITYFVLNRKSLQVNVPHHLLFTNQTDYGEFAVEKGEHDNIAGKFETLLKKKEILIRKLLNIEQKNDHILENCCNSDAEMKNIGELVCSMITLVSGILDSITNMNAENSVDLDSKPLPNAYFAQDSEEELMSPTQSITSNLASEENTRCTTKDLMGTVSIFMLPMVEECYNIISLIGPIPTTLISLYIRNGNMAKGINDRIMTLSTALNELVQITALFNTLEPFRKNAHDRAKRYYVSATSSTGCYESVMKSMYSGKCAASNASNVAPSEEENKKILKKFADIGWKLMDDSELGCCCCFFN
Method in brief: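 The E-score, a modified Wilcoxon-Mann-Whitney statistic, was computed by the Universal PBM Analysis Suite for every ungapped eight-base word pooled with its reverse complement. Scans behind it were normalised with masliner after bound GST-tagged yeast transcription factors were detected with fluorescent anti-GST. The proteins, at about 100-200 nM, had been applied to universal all-10-mer Agilent arrays made double-stranded by primer extension.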

Row | Sequence | PBM E-score
1 | ATTCGGCG | 0.0307
2 | CGTACCTC | -0.0947
3 | GGCGAACA | -0.192
4 | CAACGCAA | 0.0507
5 | GCTAACAC | 0.0723
6 | CGTCGTCC | -0.226
7 | CCCGGCGG | -0.24
8 | ACATGGGG | -0.0856
9 | ACTAATTA | 0.281
10 | GCCGATCA | -0.0313
11 | GATTCGAA | 0.199
12 | ACCGGGCT | -0.155
13 | AGATACAC | 0.108
14 | CATCACAC | 0.13
15 | AGATTGCT | 0.0604
16 | CACCATCC | -0.132
17 | GAACAATC | 0.323
18 | AAATCAGC | 0.131
19 | GTTGAATA | 0.21
20 | AGTGATGC | 0.115
21 | CTTCGCCC | -0.143
22 | CATGCAGG | -0.209
23 | AGTTCCTC | -0.0855
24 | CCAACCGG | -0.108
25 | ATAGACAC | 0.082

Row | Sequence | PBM E-score
26 | TGGACCAA | 0.0158
27 | ATATGGGG | -0.233
28 | AAGAAGTA | 0.0474
29 | AAGATACA | 0.203
30 | GGTCTGTA | 0.0247
31 | CAGTCCCC | -0.25
32 | ATGGGGGC | -0.349
33 | CACCAAGC | -0.106
34 | AGAGAGCG | -0.192
35 | ACTAGACG | 0.0224
36 | CACAAATG | 0.0361
37 | CAACGGAA | 0.0665
38 | GCGGACCC | -0.301
39 | GTACGGCA | -0.117
40 | ACCGGCAT | 0.0252
41 | CCAGTGAC | -0.172
42 | ATATGAAC | 0.0921
43 | GTCACGGA | -0.108
44 | CAGATTGG | -0.153
45 | GTCCGGCA | -0.11
46 | AAGGCGAA | -0.0953
47 | ACGTTTTC | 0.0042
48 | AAGAATTC | 0.0133
49 | GTCTGAAC | 0.0247
50 | AGGCAACC | -0.0913

Row | Sequence | PBM E-score
51 | ATTAAAAA | 0.297
52 | TCGTGAGA | -0.108
53 | AACCAGGC | -0.086
54 | CTCGCACC | -0.203
55 | AAAGGCGC | -0.197
56 | TCAAGTCA | 0.104
57 | TCCATGCA | 0.0976
58 | AGCACGCT | -0.256
59 | ACTCTACA | -0.0448
60 | CACTCCGA | -0.0716
61 | ACGAAGGA | -0.0199
62 | ACTGTAGG | 0.158
63 | TCATTAAA | 0.319
64 | CTTACGTC | -0.0834
65 | AAAGGTCG | -0.228
66 | GTTATGGA | 0.108
67 | CTTAGTAA | 0.134
68 | TCTTAAAA | 0.153
69 | GAATAGCC | -0.0559
70 | GAAGGACC | -0.204
71 | ACGGCGTG | 0.0382
72 | AGTGGTTG | 0.117
73 | CGAGTTTC | 0.1
74 | AATAGGCA | 0.146
75 | GAGGCTAC | -0.271

Row | Sequence | PBM E-score
76 | ATGAACAA | 0.239
77 | AACAGCGA | -0.176
78 | AGCTGTAT | -0.031
79 | GGACGCGA | -0.0773
80 | CCGCTAGC | -0.201
81 | TAGCAACA | 0.147
82 | ACCTTACC | 0.0718
83 | ACCAATAG | -0.167
84 | CCTCTGCC | -0.254
85 | AAGCACCA | -0.116
86 | AATGCCCG | -0.0749
87 | CGAATGTC | -0.0311
88 | AGTGCTTG | 0.0734
89 | AACATACG | 0.163
90 | CTCTCCTA | -0.0592
91 | ATTTGCCG | 0.135
92 | GGCCTGAC | -0.199
93 | ACATTAGG | -0.0103
94 | AAGCTCGT | -0.0751
95 | ATTCTTTC | 0.137
96 | GAGCGAGA | 0.0977
97 | GACAAGCA | -0.192
98 | CACTGGAA | 0.0564
99 | ACTGGAAA | 0.0843
100 | ATGTGGGA | 0.0288

Row | Sequence | PBM E-score
101 | GAACATTC | 0.282
102 | GCTGTACA | -0.131
103 | AATTTGCG | 0.132
104 | CGAGGGTC | -0.397
105 | GAGGCGAA | -0.0281
106 | CTTGACAA | 0.00502
107 | AGGCGACC | -0.298
108 | GATCATCA | 0.0496
109 | TCACCTGA | -0.136
110 | ATCGATCA | 0.0799
111 | ACAGAAGT | 0.0131
112 | CCATGGAC | -0.163
113 | CCGTAAAC | 0.113
114 | GCCAGCCC | -0.332
115 | CCGCAGGA | 0.00576
116 | CGAGCCTC | -0.169
117 | CGCCGATA | -0.0854
118 | ACGCCTCT | -0.0972
119 | ACGAAGGC | -0.109
120 | ATCGCGCG | 0.1
121 | ACCGAAGC | -0.195
122 | GTACACAA | 0.0684
123 | GTACAACA | 0.0897
124 | CATGCCGG | -0.0475
125 | ATACATGC | -0.0732

Row | Sequence | PBM E-score
126 | CGCGTTCA | 0.0712
127 | CTATGACA | 0.11
128 | GCAGGAAC | 0.00918
129 | CGTCTTGA | 0.0381
130 | ACGATGGC | -0.036
131 | AACAGAAA | 0.169
132 | TACTGGGA | 0.14
133 | ACCCGAGG | -0.231
134 | AGCGAGGG | -0.183
135 | CGAAAGAA | 0.0925
136 | AGTGCGAC | -0.186
137 | TGTGTTAA | 0.277
138 | ATGGTTTA | 0.235
139 | CCATTATA | 0.018
140 | CTCGTTGC | 0.0368
141 | GTGTAATA | 0.133
142 | ATGGCCAA | 0.0926
143 | GCGGGCCA | -0.23
144 | CTCTTGTC | -0.0901
145 | AGATTTAG | 0.215
146 | TACATTAA | 0.345
147 | ACATGGTA | 0.0129
148 | CAAGGGCA | -0.109
149 | ACGCCATC | -0.127
150 | ATGAGACC | -0.157

Row | Sequence | PBM E-score
151 | ATCAAAGG | 0.105
152 | CCACCGAA | -0.0975
153 | ATTCATGA | 0.0701
154 | CGGACAAG | -0.0192
155 | CACTCCCG | 0.0398
156 | CTAAGAAG | 0.172
157 | GAGCGACC | -0.188
158 | CAAACCCA | 0.119
159 | CGTATCCA | -0.0535
160 | GAATAGTA | 0.183
161 | AACACGCC | -0.211
162 | GGATAAGA | -0.0485
163 | AGTAAATC | 0.274
164 | AAGATTGA | 0.207
165 | GAAATGTC | 0.00409
166 | ACATTTAT | 0.184
167 | GCTCTTTA | 0.119
168 | ACTGAGAA | 0.122
169 | GCAACCCC | -0.224
170 | ACGGACTC | -0.207
171 | CGGGATTA | 0.312
172 | ATAAATGG | 0.12
